Laboratory results published in the supplement of paper PMC8728848.
This is one part of the list.

Experiments:
Test in all cases: glycan array binding signal (z-score within array); higher = stronger binding
Conditions in all cases: glycan notation: IUPAC condensed, linker removed
[1] = target: Neu5Ac(a2-3)Gal(b1-4)[Fuc(a1-3)]GlcNAc(b1-3)Gal(b1-4)[Fuc(a1-3)]GlcNAc(b1-3)Gal(b1-4)[Fuc(a1-3)]GlcNAc
How it was run: (§1)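 The binding signal is a Z-score computed within each array. Data were drawn from 3228 arrays in the Consortium for Functional Glycomics database, restricted to those with a known protein sequence. Scores were averaged over arrays of the same protein sequence at different concentrations or buffers, and over linkers, and negative values can be taken as non-binding.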

[2] = target: Neu5Ac(a2-3)Gal(b1-4)[Fuc(a1-3)]GlcNAc(b1-6)[Gal(b1-3)]GalNAc
How it was run: as §1

[3] = target: Neu5Ac(a2-3)Gal(b1-4)[Fuc(a1-3)]GlcNAc(b1-6)[Neu5Ac(a2-3)Gal(b1-3)]GalNAc
How it was run: as §1

[4] = target: Neu5Ac(a2-3)Gal(b1-4)[Fuc(a1-3)]GlcNAc6S
How it was run: as §1

[5] = target: Neu5Ac(a2-3)Gal6S(b1-4)GlcNAc
How it was run: as §1

[6] = target: Neu5Ac(a2-3)Gal6S(b1-4)[Fuc(a1-3)]GlcNAc
How it was run: as §1

Neu5Ac(a2-3)GalNAc = target: Neu5Ac(a2-3)GalNAc
How it was run: as §1

[7] = target: Neu5Ac(a2-3)GalNAc(b1-4)GlcNAc
How it was run: as §1

[8] = target: Neu5Ac(a2-3)[GalNAc(b1-4)]Gal(b1-4)Glc
How it was run: as §1

[9] = target: Neu5Ac(a2-3)[GalNAc(b1-4)]Gal(b1-4)GlcNAc
How it was run: as §1

[10] = target: Neu5Ac(a2-3)[Neu5Ac(a2-6)]GalNAc
How it was run: as §1

Neu5Ac(a2-6)Gal = target: Neu5Ac(a2-6)Gal
How it was run: as §1

Neu5Ac(a2-6)Gal(b1-4)Glc = target: Neu5Ac(a2-6)Gal(b1-4)Glc
How it was run: as §1

[11] = target: Neu5Ac(a2-6)Gal(b1-4)GlcNAc
How it was run: as §1

[12] = target: Neu5Ac(a2-6)Gal(b1-4)GlcNAc(b1-2)Man(a1-3)Man(b1-4)GlcNAc(b1-4)GlcNAc
How it was run: as §1

[13] = target: Neu5Ac(a2-6)Gal(b1-4)GlcNAc(b1-2)Man(a1-3)[Gal(b1-4)GlcNAc(b1-2)Man(a1-6)]Man(b1-4)GlcNAc(b1-4)GlcNAc
How it was run: as §1

[14] = target: Neu5Ac(a2-6)Gal(b1-4)GlcNAc(b1-2)Man(a1-3)[GlcNAc(b1-2)Man(a1-6)]Man(b1-4)GlcNAc(b1-4)GlcNAc
How it was run: as §1

[15] = target: Neu5Ac(a2-6)Gal(b1-4)GlcNAc(b1-2)Man(a1-3)[GlcNAc(b1-2)Man(b1-4)GlcNAc(b1-2)Man(a1-6)]Man(b1-4)GlcNAc(b1-4)GlcNAc
How it was run: as §1

[16] = target: Neu5Ac(a2-6)Gal(b1-4)GlcNAc(b1-2)Man(a1-3)[Man(a1-6)]Man(b1-4)GlcNAc(b1-4)GlcNAc
How it was run: as §1

[17] = target: Neu5Ac(a2-6)Gal(b1-4)GlcNAc(b1-2)Man(a1-3)[Neu5Ac(a2-6)Gal(b1-4)GlcNAc(b1-2)Man(a1-6)]Man(b1-4)GlcNAc(b1-4)GlcNAc
How it was run: as §1

[18] = target: Neu5Ac(a2-6)Gal(b1-4)GlcNAc(b1-2)Man(a1-6)Man(b1-4)GlcNAc(b1-4)GlcNAc
How it was run: as §1

[19] = target: Neu5Ac(a2-6)Gal(b1-4)GlcNAc(b1-2)Man(a1-6)[Gal(b1-4)GlcNAc(b1-2)Man(a1-3)]Man(b1-4)GlcNAc(b1-4)GlcNAc
How it was run: as §1

[20] = target: Neu5Ac(a2-6)Gal(b1-4)GlcNAc(b1-2)Man(a1-6)[GlcNAc(b1-2)Man(a1-3)]Man(b1-4)GlcNAc(b1-4)GlcNAc
How it was run: as §1

[21] = target: Neu5Ac(a2-6)Gal(b1-4)GlcNAc(b1-2)Man(a1-6)[Man(a1-3)]Man(b1-4)GlcNAc(b1-4)GlcNAc
How it was run: as §1

[22] = target: Neu5Ac(a2-6)Gal(b1-4)GlcNAc(b1-3)Gal(b1-3)GlcNAc
How it was run: as §1

[23] = target: Neu5Ac(a2-6)Gal(b1-4)GlcNAc(b1-3)Gal(b1-4)GlcNAc
How it was run: as §1

[24] = target: Neu5Ac(a2-6)Gal(b1-4)GlcNAc(b1-3)Gal(b1-4)GlcNAc(b1-3)Gal(b1-4)GlcNAc
How it was run: as §1

[25] = target: Neu5Ac(a2-6)Gal(b1-4)GlcNAc(b1-3)Gal(b1-4)[Fuc(a1-3)]GlcNAc(b1-3)Gal(b1-4)[Fuc(a1-3)]GlcNAc
How it was run: as §1

[26] = target: Neu5Ac(a2-6)Gal(b1-4)GlcNAc(b1-3)GalNAc
How it was run: as §1

[27] = target: Neu5Ac(a2-6)Gal(b1-4)GlcNAc6S
How it was run: as §1

Neu5Ac(a2-6)GalNAc = target: Neu5Ac(a2-6)GalNAc
How it was run: as §1

[28] = target: Neu5Ac(a2-6)GalNAc(b1-4)GlcNAc
How it was run: as §1

[29] = target: Neu5Ac(a2-6)GlcNAc(b1-4)GlcNAc
How it was run: as §1

[30] = target: Neu5Ac(a2-6)GlcNAc(b1-4)GlcNAc(b1-4)GlcNAc
How it was run: as §1

Neu5Ac(a2-8)Neu5Ac = target: Neu5Ac(a2-8)Neu5Ac
How it was run: as §1

[31] = target: Neu5Ac(a2-8)Neu5Ac(a2-3)Gal(b1-4)Glc
How it was run: as §1

[32] = target: Neu5Ac(a2-8)Neu5Ac(a2-3)[GalNAc(b1-4)]Gal(b1-4)Glc
How it was run: as §1

[33] = target: Neu5Ac(a2-8)Neu5Ac(a2-8)Neu5Ac
How it was run: as §1

[34] = target: Neu5Ac(a2-8)Neu5Ac(a2-8)Neu5Ac(a2-3)Gal(b1-4)Glc
How it was run: as §1

[35] = target: Neu5Ac(a2-8)Neu5Ac(a2-8)Neu5Ac(a2-3)[GalNAc(b1-4)]Gal(b1-4)Glc
How it was run: as §1

[36] = target: Neu5Ac(a2-8)Neu5Ac(a2-8)Neu5Ac(a2-8)Neu5Ac(a2-3)[GalNAc(b1-4)]Gal(b1-4)Glc
How it was run: as §1

[37] = target: Neu5Ac(b2-6)Gal(b1-4)GlcNAc
How it was run: as §1

Neu5Ac(b2-6)GalNAc = target: Neu5Ac(b2-6)GalNAc
How it was run: as §1

[38] = target: Neu5Ac9Ac(a2-3)Gal(b1-3)GlcNAc
How it was run: as §1

[39] = target: Neu5Ac9Ac(a2-3)Gal(b1-4)GlcNAc
How it was run: as §1

[40] = target: Neu5Ac9Ac(a2-6)Gal(b1-4)GlcNAc
How it was run: as §1

[41] = target: Neu5Gc(a2-3)Gal(b1-3)GlcNAc
How it was run: as §1

[42] = target: Neu5Gc(a2-3)Gal(b1-3)[Fuc(a1-4)]GlcNAc
How it was run: as §1

Neu5Gc(a2-3)Gal(b1-4)Glc = target: Neu5Gc(a2-3)Gal(b1-4)Glc
How it was run: as §1

[43] = target: Neu5Gc(a2-3)Gal(b1-4)GlcNAc
How it was run: as §1

[44] = target: Neu5Gc(a2-3)Gal(b1-4)[Fuc(a1-3)]GlcNAc
How it was run: as §1

[45] = target: Neu5Gc(a2-6)Gal(b1-4)GlcNAc
How it was run: as §1

Neu5Gc(a2-6)GalNAc = target: Neu5Gc(a2-6)GalNAc
How it was run: as §1

[46] = target: Neu5Gc(b2-6)Gal(b1-4)GlcNAc
How it was run: as §1

B1: HHL-1 (Homo sapiens), P07306 (protein)
chain: TKEYQDLQHLDNEESDHHQLRKGPPPPQPLLQRLCSGPRLLLLSLGLSLLLLVVVCVIGSQNSQLQEELRGLRETFSNFTASTEAQVKGLSTQGGNVGRKMKSLESQLEKQQKDLSEDHSSLLLHVKQFVSDLRSLSCQMAALQGNGSERTCCPVNWVEHERSCYWFSRSGKAWADADNYCRLEDAHLVVVTSWEEQKFVQHHIGPVNTWMGLHDQNGPWKWVDGTDYETGFKNWRPEQPDDWYGHGLGGGEDCAHFTDDGRWNDDVCQRPYRWVCETELDKASQEPPLL
Question: How did the “glycan array binding signal (z-score)” value [1] turn out when B1 was run?
Answer: -0.469

Question: What about the “glycan array binding signal (z-score)” value [2] of the same binder?
Answer: -0.329

Question: And the “glycan array binding signal (z-score)” value [3]?
Answer: -0.569

Question: What about the “glycan array binding signal (z-score)” value [4] of the same binder?
Answer: -0.489

Question: What about the “glycan array binding signal (z-score)” value [5] of the same binder?
Answer: -0.558

Question: What about the “glycan array binding signal (z-score)” value [6] of the same binder?
Answer: -0.533

Question: What about the “glycan array binding signal (z-score)” value (Neu5Ac(a2-3)GalNAc) of the same binder?
Answer: -0.482

Question: And the “glycan array binding signal (z-score)” value [7]?
Answer: 0.978

Question: And the “glycan array binding signal (z-score)” value [8]?
Answer: 0.352

Question: And the “glycan array binding signal (z-score)” value [9]?
Answer: -0.188

Question: What about the “glycan array binding signal (z-score)” value [10] of the same binder?
Answer: 0.133

Question: What about the “glycan array binding signal (z-score)” value (Neu5Ac(a2-6)Gal) of the same binder?
Answer: 0.61

Question: What about the “glycan array binding signal (z-score)” value (Neu5Ac(a2-6)Gal(b1-4)Glc) of the same binder?
Answer: -0.274

Question: And the “glycan array binding signal (z-score)” value [11]?
Answer: -0.307

Question: And the “glycan array binding signal (z-score)” value [12]?
Answer: -0.335

Question: And the “glycan array binding signal (z-score)” value [13]?
Answer: 1.69

Question: And the “glycan array binding signal (z-score)” value [14]?
Answer: -0.086

Question: And the “glycan array binding signal (z-score)” value [15]?
Answer: -0.344

Question: And the “glycan array binding signal (z-score)” value [16]?
Answer: 0.807

Question: And the “glycan array binding signal (z-score)” value [17]?
Answer: -0.114

Question: And the “glycan array binding signal (z-score)” value [18]?
Answer: -0.341

Question: And the “glycan array binding signal (z-score)” value [19]?
Answer: -0.419

Question: And the “glycan array binding signal (z-score)” value [20]?
Answer: 0.241

Question: And the “glycan array binding signal (z-score)” value [21]?
Answer: -0.283

Question: And the “glycan array binding signal (z-score)” value [22]?
Answer: 0.296

Question: What about the “glycan array binding signal (z-score)” value [23] of the same binder?
Answer: -0.544

Question: And the “glycan array binding signal (z-score)” value [24]?
Answer: 0.954

Question: What about the “glycan array binding signal (z-score)” value [25] of the same binder?
Answer: 0.266

Question: And the “glycan array binding signal (z-score)” value [26]?
Answer: 0.333

Question: And the “glycan array binding signal (z-score)” value [27]?
Answer: -0.346

Question: What about the “glycan array binding signal (z-score)” value (Neu5Ac(a2-6)GalNAc) of the same binder?
Answer: -0.568

Question: And the “glycan array binding signal (z-score)” value [28]?
Answer: -0.517

Question: What about the “glycan array binding signal (z-score)” value [29] of the same binder?
Answer: 0.387

Question: What about the “glycan array binding signal (z-score)” value [30] of the same binder?
Answer: -0.495

Question: And the “glycan array binding signal (z-score)” value (Neu5Ac(a2-8)Neu5Ac)?
Answer: -0.455

Question: What about the “glycan array binding signal (z-score)” value [31] of the same binder?
Answer: -0.431

Question: And the “glycan array binding signal (z-score)” value [32]?
Answer: -0.16

Question: And the “glycan array binding signal (z-score)” value [33]?
Answer: -0.202

Question: And the “glycan array binding signal (z-score)” value [34]?
Answer: -0.038

Question: What about the “glycan array binding signal (z-score)” value [35] of the same binder?
Answer: -0.164

Question: What about the “glycan array binding signal (z-score)” value [36] of the same binder?
Answer: 2.28

Question: What about the “glycan array binding signal (z-score)” value [37] of the same binder?
Answer: -0.409

Question: And the “glycan array binding signal (z-score)” value (Neu5Ac(b2-6)GalNAc)?
Answer: -0.515

Question: What about the “glycan array binding signal (z-score)” value [38] of the same binder?
Answer: -0.561

Question: What about the “glycan array binding signal (z-score)” value [39] of the same binder?
Answer: 0.603

Question: What about the “glycan array binding signal (z-score)” value [40] of the same binder?
Answer: -0.319

Question: What about the “glycan array binding signal (z-score)” value [41] of the same binder?
Answer: -0.431

Question: What about the “glycan array binding signal (z-score)” value [42] of the same binder?
Answer: 0.046

Question: What about the “glycan array binding signal (z-score)” value (Neu5Gc(a2-3)Gal(b1-4)Glc) of the same binder?
Answer: 0.177

Question: And the “glycan array binding signal (z-score)” value [43]?
Answer: -0.534

Question: And the “glycan array binding signal (z-score)” value [44]?
Answer: 0.159

Question: And the “glycan array binding signal (z-score)” value [45]?
Answer: 0.777

Question: And the “glycan array binding signal (z-score)” value (Neu5Gc(a2-6)GalNAc)?
Answer: -0.536

Question: What about the “glycan array binding signal (z-score)” value [46] of the same binder?
Answer: -0.537
